# According to PubChem BioAssay (NCATS):
# Inconclusive results, whose numbers are uncertain, are shown with a selection of clear calls. For some of these results: No potency is given beside an inconclusive call; the fits are too rough. Calls of active or inactive are those of the source. Unless noted, the call rests on the fitted dose curve; in most records, active means well fitted curve in the direction sought with a large enough effect; inconclusive means small, poorly fitted or top-dose-only effect, or another doubt; inactive means no such curve, though single readings can be large; an effect the other way counts as inactive or inconclusive.
# Key:
# [1] = qHTS for differential inhibitors of proliferation of Plasmodium falciparum line GB4 (AID 1816); details: Potency: Plasmodium falciparum GB4 proliferation inhibition;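 further: potency means the concentration at half of the fitted maximal effect; parasite growth measured after 72 h incubation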
# CP266 = test: qHTS profiling for inhibitors of Plasmodium falciparum proliferation (AID 504749); further: nearly all actives have a fitted effect of over 60% in size; further: potency means the concentration at half of the fitted maximal effect; details: P. falciparum in erythrocytes, SYBR Green DNA, 72 h; series mostly up to 28.7 µM
# Outline: (§1)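 Parasite proliferation within erythrocytes, 72 h exposure. Endpoint: SYBR Green I fluorescence after overnight lysis at room temperature. Controls: 0.29 uM artemisinin, DMSO.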
# [2] = molecular target: Cytochrome P450 3A4 (Homo sapiens) (UniProt P08684); test: Cytochrome P450 family 3 subfamily A member 4 (CYP3A4) small molecule antagonists: luciferase qHTS assay (AID 1645841; active means well fitted curve in the direction sought with a large enough effect in the repeat runs; inconclusive means weak or mixed curves; inactive means no such curve, though single readings can be large; an effect the other way counts as inactive or inconclusive; further: nearly all actives have a fitted effect of over 45% in size)
# Sequence of UniProt P08684 (P08684 whole entry, looked up): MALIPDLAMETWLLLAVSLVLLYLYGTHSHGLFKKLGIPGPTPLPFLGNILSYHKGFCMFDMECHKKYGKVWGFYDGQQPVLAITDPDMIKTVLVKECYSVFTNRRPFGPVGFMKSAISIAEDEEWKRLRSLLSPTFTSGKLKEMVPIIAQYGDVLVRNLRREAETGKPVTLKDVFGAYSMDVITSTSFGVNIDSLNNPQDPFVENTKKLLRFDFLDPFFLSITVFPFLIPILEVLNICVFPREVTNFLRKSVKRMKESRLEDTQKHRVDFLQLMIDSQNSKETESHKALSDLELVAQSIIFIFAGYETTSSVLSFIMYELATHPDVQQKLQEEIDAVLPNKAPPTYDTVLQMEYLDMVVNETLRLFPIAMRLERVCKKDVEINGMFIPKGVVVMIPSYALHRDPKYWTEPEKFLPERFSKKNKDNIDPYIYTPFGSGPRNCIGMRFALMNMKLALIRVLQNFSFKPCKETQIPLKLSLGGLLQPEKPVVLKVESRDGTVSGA
# Outline: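 P450-Glo CYP3A4 enzyme with proluciferin substrate was preincubated with DMSO-dissolved compounds for 10 min at room temperature. NADPH regeneration solution started a 1 h reaction. Detection reagent stopped it, and luminescence was read after 20 min.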
# W2 = test: qHTS profiling for inhibitors of Plasmodium falciparum proliferation (AID 504749); further: nearly all actives have a fitted effect of over 60% in size; further: potency means the concentration at half of the fitted maximal effect; details: P. falciparum in erythrocytes, SYBR Green DNA, 72 h; series mostly up to 28.7 µM
# Outline: as §1
# [3] = molecular target: Luciferin 4-monooxygenase (Photinus pyralis) (UniProt P08659); test: Primary firefly luciferase (FLuc) qHTS assay for identification of artifact compounds. (AID 1845220)
# Outline: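 Reaction readout was CCD-imaged luminescence, taken 5 min after adding 10 nM purified firefly enzyme to compound-treated wells holding 10 uM luciferin and ATP in pH 7.6 buffer.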
# [4] = qHTS Assay for Identification of Small Molecule Antagonists for Thrombopoietin (TPO) Signaling Pathway (AID 918); details: TPO-dependent cell signaling reporter, antagonist mode; activity change, negative = inhibition: at 38.5 µM (top of the series); further: nearly all actives have a fitted effect of over 60% in size
# Outline: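 Murine Ba/F3 cells expressing human TPO receptor and a Glycoprotein IIb promoter-luciferase reporter, IL-3-starved overnight, treated with compound plus TPO at EC50 (26 pM final). After 24 h at 37 C, luminescence read to detect inhibitors.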
# GB4 = test: qHTS profiling for inhibitors of Plasmodium falciparum proliferation (AID 504749); further: nearly all actives have a fitted effect of over 60% in size; further: potency means the concentration at half of the fitted maximal effect; details: P. falciparum in erythrocytes, SYBR Green DNA, 72 h; series mostly up to 28.7 µM
# Outline: as §1
# CP185 = test: as above; details: P. falciparum in erythrocytes, SYBR Green DNA, 72 h; series mostly up to 28.7 µM
# Outline: as §1
# [5] = Quantitative High-Throughput drug screen in 47 multiple myeloma cell lines against the NCATS MIPE library collection: Karpas620_DSMZ cell viability assay (AID 1918959); further: nearly all actives have a fitted effect of over 30% in size; further: potency means the concentration at half of the fitted maximal effect
# Outline: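 Viability readout: CellTiter-Glo luminescence following 5 min room-temperature incubation with reagent. Prior exposure: 48 h, 37C, humidified 5% CO2, 500 cells per well.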
# [6] = Quantitative High-Throughput drug screen in 47 multiple myeloma cell lines against the NCATS MIPE library collection: H1112_PLB cell viability assay (AID 1918967; further: potency means the concentration at half of the fitted maximal effect; nearly all actives have a fitted effect of over 30% in size)
# Outline: (§2)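 qHTS of the MIPE 4.0 collection: 500 myeloma cells/well, 48 h drug exposure at 37C in 5% CO2, then CellTiter-Glo for 5 min at room temperature before luminescence reading.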
# [7] = qHTS Assay for Identification of Small Molecule Agonists for Thrombopoietin (TPO) Signaling Pathway (AID 917); further: potency means the concentration at half of the fitted maximal effect
# Outline: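 We measured Glycoprotein IIb promoter–luciferase output in IL-3-starved Ba/F3 murine cells expressing the human TPO receptor after 24 hrs at 37 C with compounds and 26 pM TPO.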
# [8] = molecular target: Lysine-specific demethylase 5B (Homo sapiens) (UniProt Q9UGL1); test: Optimization screen for KDM5B Histone Demethylases FDH coupled qHTS against the LOPAC library (AID 1347166); further: potency means the concentration at half of the fitted maximal effect
# Sequence of UniProt Q9UGL1 (Q9UGL1 whole entry, looked up): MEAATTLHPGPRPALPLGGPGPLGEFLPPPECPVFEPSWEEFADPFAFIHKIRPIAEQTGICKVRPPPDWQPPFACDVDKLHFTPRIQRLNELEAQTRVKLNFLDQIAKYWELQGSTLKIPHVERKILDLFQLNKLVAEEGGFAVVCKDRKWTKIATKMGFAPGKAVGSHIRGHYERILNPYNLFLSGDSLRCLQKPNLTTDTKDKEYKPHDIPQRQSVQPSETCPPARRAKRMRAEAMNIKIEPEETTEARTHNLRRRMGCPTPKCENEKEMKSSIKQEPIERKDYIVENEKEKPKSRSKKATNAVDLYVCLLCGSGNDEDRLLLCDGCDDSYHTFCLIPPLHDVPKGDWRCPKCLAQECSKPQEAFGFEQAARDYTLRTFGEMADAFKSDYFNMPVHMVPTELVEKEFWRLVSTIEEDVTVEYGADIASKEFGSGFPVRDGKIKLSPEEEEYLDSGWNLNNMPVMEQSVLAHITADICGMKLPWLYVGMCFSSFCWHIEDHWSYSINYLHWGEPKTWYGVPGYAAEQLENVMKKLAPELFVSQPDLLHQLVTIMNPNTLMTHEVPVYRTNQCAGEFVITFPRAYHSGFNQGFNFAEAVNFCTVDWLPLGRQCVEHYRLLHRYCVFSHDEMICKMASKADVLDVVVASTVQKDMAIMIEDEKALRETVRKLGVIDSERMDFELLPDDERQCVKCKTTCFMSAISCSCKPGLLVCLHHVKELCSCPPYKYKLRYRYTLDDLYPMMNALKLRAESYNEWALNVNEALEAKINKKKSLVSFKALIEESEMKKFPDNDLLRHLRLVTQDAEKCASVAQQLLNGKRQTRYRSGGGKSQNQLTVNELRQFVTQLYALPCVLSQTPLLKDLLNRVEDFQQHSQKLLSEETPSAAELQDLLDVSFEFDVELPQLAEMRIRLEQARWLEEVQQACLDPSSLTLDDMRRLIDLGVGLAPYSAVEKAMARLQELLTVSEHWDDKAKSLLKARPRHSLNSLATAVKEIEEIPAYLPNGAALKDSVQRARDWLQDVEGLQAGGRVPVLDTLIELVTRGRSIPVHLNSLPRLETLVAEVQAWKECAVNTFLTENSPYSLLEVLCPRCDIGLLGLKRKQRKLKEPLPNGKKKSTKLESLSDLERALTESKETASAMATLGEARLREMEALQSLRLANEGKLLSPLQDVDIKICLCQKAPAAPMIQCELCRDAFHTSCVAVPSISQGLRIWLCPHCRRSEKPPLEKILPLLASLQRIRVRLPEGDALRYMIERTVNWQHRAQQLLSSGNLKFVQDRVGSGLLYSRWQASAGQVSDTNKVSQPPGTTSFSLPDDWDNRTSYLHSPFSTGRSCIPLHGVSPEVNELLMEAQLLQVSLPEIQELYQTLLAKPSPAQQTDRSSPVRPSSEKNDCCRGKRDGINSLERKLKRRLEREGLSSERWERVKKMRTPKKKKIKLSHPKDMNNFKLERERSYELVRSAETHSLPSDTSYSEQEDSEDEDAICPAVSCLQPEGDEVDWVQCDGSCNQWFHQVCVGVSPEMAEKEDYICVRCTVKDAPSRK
# Outline: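 KDM5BDeltaAP (200nM final) preincubated 10 min with compound, then 12.5uM H3K4Me3, 25uM a-ketoglutarate, ascorbate, Fe(II), NAD+ and FDH added; 50mM HEPES pH 7.5, 0.01% Tween-20. NADH fluorescence (340/450 nm) change over 30 min, room temperature.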
# [9] = Quantitative High-Throughput drug screen in 47 multiple myeloma cell lines against the NCATS MIPE library collection: NCIH929_DSMZ cell viability assay (AID 1918978); further: potency means the concentration at half of the fitted maximal effect; nearly all actives have a fitted effect of over 35% in size
# Outline: (§3)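 MIPE 4.0 approved/investigational drugs; 500 cells/well; 48 h 37 °C humidified 5% CO2; CTG luminescence readout; DMSO = 100%, media = 0% viability.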
# [10] = Quantitative High-Throughput drug screen in 47 multiple myeloma cell lines against the NCATS MIPE library collection: OPM1_PLB cell viability assay (AID 1918989); further: potency means the concentration at half of the fitted maximal effect; nearly all actives have a fitted effect of over 40% in size
# Outline: as §3
# [11] = Quantitative High-Throughput drug screen in 47 multiple myeloma cell lines against the NCATS MIPE library collection: PE2_PLB cell viability assay (AID 1919869); details: PE2_PLB myeloma cells viability, ATP luminescence, 48 h; viability (% of control): at 45.8 µM (top of the series); further: potency means the concentration at half of the fitted maximal effect; nearly all actives have a fitted effect of over 35% in size
# Outline: as §3
# CP252 = test: qHTS profiling for inhibitors of Plasmodium falciparum proliferation (AID 504749); further: nearly all actives have a fitted effect of over 60% in size; further: potency means the concentration at half of the fitted maximal effect; details: P. falciparum in erythrocytes, SYBR Green DNA, 72 h; series mostly up to 28.7 µM
# Outline: as §1
# [12] = qHTS to identify inhibitors of the type 1 interferon - major histocompatibility complex class I in skeletal muscle: primary screen against the NCATS Pharmaceutical Collection (AID 1347407); details: human skeletal muscle cells, IFN-b-induced MHC-I HiBiT luminescence, 24 h; activity change, negative = inhibition: at 45.9 µM (top of the series);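 further: luminescence of HiBiT knocked into endogenous HLA-B as interferon-induced MHC class I level; potency means the concentration at half of the fitted maximal effect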
# Outline: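 Cells were seeded with 4 ng/ml IFN-beta, incubated 1 h, then dosed with compounds over eight 1:5 steps up to 46 uM final. After 24 h at 37 C, HiBiT lytic reagent was added and luminescence read after 10 min lysis in the dark.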
# [13] = Quantitative High-Throughput drug screen in 47 multiple myeloma cell lines against the NCATS MIPE library collection: Karpas25_ECACC cell viability assay (AID 1918968; further: nearly all actives have a fitted effect of over 35% in size; further: potency means the concentration at half of the fitted maximal effect)
# Outline: as §2
# CP250 = test: qHTS profiling for inhibitors of Plasmodium falciparum proliferation (AID 504749); further: nearly all actives have a fitted effect of over 60% in size; further: potency means the concentration at half of the fitted maximal effect; details: P. falciparum in erythrocytes, SYBR Green DNA, 72 h; series mostly up to 28.7 µM
# Outline: as §1
# [14] = qHTS of pediatric cancer cell lines to identify multiple opportunities for drug repurposing: Confirmatory screen for NB1643 cells (AID 1347109); further: nearly all actives have a fitted effect of over 45% in size; further: potency means the concentration at half of the fitted maximal effect
# Outline: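 Cells (500-1,000/well) in growth media were settled 5 h at 37 degrees C, then given compounds for 48 h. Viability was read as CellTiter-Glo luminescence. Primary runs used MIPE at 11 points (0.78 nM-46 µM) and NPC at 8 points (0.59 nM-46 µM); follow-ups used 11 points.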
# Tags describe the fitted curve by direction and shape.
compound,measurement,setting,value
OC(CCN1CCCCC1)(c1ccccc1)C1CCCCC1 (centres undefined),Potency,[1],active: 10 µM
same,Potency,CP266,inactive
O=C(O)C1(C(=O)O)CCC1.[NH2-].[NH2-].[Pt+2],Potency,[2],inactive
same,Potency,W2,"inconclusive [inhibitor, single point]"
COc1cc2ncc(-c3ccccc3)nc2cc1OC,Potency,[3],"inconclusive [inhibitor, partial curve]"
CN1CCN(C2=Nc3ccccc3Oc3ccc(Cl)cc32)CC1,"activity change, negative = inhibition",[4],inconclusive: -7% [phenotype inactive]
same,Potency,GB4,"inconclusive [inhibitor, partial curve]"
same,Potency,W2,"inconclusive [inhibitor, single point]"
CC(=O)O[C@H]1[C@H](OC(=O)C(C)C)[C@]2(C)OC3(CC[C@]2(C)[C@H]2CCC[C@]4(CO4)[C@]12C)COC(=O)C3 (some centres undefined),Potency,[3],"inconclusive [inhibitor, single point]"
COc1ccccc1O,Potency,CP185,inactive
same,Potency,CP266,inactive
CC(O)(C#Cc1ccc2c(c1)N(c1nc(N)ncc1Cl)CC2)c1nccs1 (centres undefined),Potency,[5],"inconclusive [cytotoxic, partial curve]"
same,Potency,[6],active: 1.18 µM
NCCc1ccc(O)c(O)c1,Potency,[7],"inconclusive [inhibitor, partial curve]"
same,Potency,[1],"inconclusive [inhibitor, partial curve]"
same,Potency,[8],"inconclusive [inhibitor, partial curve, poor fit]"
same,Potency,[9],"inconclusive [cytotoxic, single point]"
same,Potency,[10],"inconclusive [cytotoxic, partial curve, poor fit]"
same,Potency,[11],"inconclusive [cytotoxic, partial curve]"
same,Potency,CP252,inactive
same,Potency,CP266,inactive
same,Potency,W2,"inconclusive [inhibitor, single point]"
COc1ccc2c(c1)C(=O)N(CCc1ccc(S(=O)(=O)NC(=O)NC3CCCCC3)cc1)C(=O)C2(C)C,Potency,[12],"inconclusive [inhibitor, single point]"
same,Potency,GB4,inactive
NC(=O)N1c2ccccc2CC(=O)c2ccccc21,Potency,[5],inactive
same,Potency,[13],inactive
same,Potency,CP250,inactive
same,Potency,W2,inactive
Cc1ccc2nc(NC(=O)CSc3nc4c(c(=O)n3-c3ccccc3)SCC4)sc2c1,Potency,[14],"inconclusive [cytotoxic, partial curve, poor fit]"
same,Potency,[5],"inconclusive [cytotoxic, partial curve]"
same,Potency,[6],active: 11.8 µM
same,Potency,[9],"inconclusive [cytotoxic, partial curve]"
O=NN(CCCl)C(=O)NC1CCCCC1,Potency,[14],inactive
same,Potency,[2],inactive
same,Potency,[13],inconclusive
CCOc1cc2ncc(C#N)c(Nc3ccc(OCc4ccccn4)c(Cl)c3)c2cc1NC(=O)C=CCN(C)C,Potency,[14],"inconclusive [cytotoxic, partial curve]"
same,Potency,[5],"inconclusive [cytotoxic, full curve]"
same,Potency,[6],"inconclusive [cytotoxic, full curve]"
same,Potency,[10],"inconclusive [cytotoxic, partial curve, poor fit]"
CCC(C(=O)OCCN(CC)CC)c1ccccc1 (centres undefined),Potency,GB4,"inconclusive [inhibitor, partial curve, poor fit]"
COC(=O)Nc1nc2ccc(S(=O)c3ccccc3)cc2[nH]1 (centres undefined),Potency,[12],"inconclusive [inhibitor, partial curve, poor fit]"
same,Potency,[6],"inconclusive [cytotoxic, single point]"
same,Potency,[9],"inconclusive [rising, full curve, poor fit]"
same,Potency,[10],"inconclusive [cytotoxic, single point]"
same,Potency,[11],"inconclusive [cytotoxic, partial curve, poor fit]"
COc1ccccc1NC(=O)Nc1ccc2ccccc2c1,Potency,[3],active: 8.49 µM
CS(=O)(=O)c1ccc(-c2cnc(N)c(C(=O)Nc3ccccc3)n2)cc1,Potency,[13],"inconclusive [cytotoxic, partial curve, poor fit]"
same,Potency,[11],"inconclusive [cytotoxic, full curve]"
O=C(CSc1nc2c(c(=O)n1-c1ccccc1)SCC2)Nc1ccc(-c2ccccc2)cn1,Potency,[3],"inconclusive [inhibitor, partial curve]"
